Assay [1] deals with T1, HA-tagged TSHZ3 full length (UniProt Q8CGV9).
T1 sequence: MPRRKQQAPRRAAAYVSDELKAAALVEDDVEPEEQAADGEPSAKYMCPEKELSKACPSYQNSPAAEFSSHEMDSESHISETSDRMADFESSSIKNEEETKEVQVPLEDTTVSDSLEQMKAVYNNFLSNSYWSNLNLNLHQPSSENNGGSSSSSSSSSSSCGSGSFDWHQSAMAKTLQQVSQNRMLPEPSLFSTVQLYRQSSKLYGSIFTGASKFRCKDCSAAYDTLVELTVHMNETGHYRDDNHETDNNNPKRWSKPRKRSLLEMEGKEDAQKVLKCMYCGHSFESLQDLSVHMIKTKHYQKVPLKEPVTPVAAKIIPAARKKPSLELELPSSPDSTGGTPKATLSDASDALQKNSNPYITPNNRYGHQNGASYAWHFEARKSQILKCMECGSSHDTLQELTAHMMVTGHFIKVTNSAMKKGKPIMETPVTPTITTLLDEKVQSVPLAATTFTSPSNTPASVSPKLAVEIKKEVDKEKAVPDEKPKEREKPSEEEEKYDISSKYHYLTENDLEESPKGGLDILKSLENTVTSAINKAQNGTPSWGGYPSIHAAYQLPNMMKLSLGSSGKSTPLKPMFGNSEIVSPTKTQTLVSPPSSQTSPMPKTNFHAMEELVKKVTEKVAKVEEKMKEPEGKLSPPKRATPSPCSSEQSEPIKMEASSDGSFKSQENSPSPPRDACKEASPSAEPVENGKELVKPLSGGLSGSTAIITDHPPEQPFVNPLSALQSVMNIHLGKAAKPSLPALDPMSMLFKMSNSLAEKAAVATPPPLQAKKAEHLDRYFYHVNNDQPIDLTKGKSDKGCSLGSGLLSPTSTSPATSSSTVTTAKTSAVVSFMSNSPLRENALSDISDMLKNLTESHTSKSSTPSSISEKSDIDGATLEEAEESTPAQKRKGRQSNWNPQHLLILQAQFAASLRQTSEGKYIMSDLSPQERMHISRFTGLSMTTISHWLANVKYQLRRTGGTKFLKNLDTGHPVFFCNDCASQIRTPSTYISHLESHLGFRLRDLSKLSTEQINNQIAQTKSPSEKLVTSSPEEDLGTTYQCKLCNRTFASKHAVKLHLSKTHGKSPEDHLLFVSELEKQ
Nature of the assay: co-IP; reciprocal: HEK293T cells transiently transfected; immunoprecipitation with anti-HA (3F10) and protein G beads; immunoblot with anti-Flag. In general terms: A western blot detects proteins with antibodies after separation by electrophoresis.

By UniProt entry, the sequences of proteins in these tests, tags left out.
UniProt P48436: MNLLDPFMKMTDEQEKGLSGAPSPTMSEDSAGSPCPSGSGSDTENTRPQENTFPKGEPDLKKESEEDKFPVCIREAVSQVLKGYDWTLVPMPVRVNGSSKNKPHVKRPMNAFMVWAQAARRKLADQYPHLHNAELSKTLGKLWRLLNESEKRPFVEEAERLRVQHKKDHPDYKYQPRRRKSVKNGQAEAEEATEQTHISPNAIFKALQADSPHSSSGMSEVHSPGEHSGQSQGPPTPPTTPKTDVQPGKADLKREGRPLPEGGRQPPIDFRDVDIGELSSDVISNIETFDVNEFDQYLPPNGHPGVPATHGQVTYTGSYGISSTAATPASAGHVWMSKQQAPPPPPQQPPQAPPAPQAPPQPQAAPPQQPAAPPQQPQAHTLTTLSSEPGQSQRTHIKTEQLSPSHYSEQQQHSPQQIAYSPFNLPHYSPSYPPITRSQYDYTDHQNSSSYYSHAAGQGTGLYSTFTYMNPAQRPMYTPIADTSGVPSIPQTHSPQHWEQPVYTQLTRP
UniProt Q8VIM5: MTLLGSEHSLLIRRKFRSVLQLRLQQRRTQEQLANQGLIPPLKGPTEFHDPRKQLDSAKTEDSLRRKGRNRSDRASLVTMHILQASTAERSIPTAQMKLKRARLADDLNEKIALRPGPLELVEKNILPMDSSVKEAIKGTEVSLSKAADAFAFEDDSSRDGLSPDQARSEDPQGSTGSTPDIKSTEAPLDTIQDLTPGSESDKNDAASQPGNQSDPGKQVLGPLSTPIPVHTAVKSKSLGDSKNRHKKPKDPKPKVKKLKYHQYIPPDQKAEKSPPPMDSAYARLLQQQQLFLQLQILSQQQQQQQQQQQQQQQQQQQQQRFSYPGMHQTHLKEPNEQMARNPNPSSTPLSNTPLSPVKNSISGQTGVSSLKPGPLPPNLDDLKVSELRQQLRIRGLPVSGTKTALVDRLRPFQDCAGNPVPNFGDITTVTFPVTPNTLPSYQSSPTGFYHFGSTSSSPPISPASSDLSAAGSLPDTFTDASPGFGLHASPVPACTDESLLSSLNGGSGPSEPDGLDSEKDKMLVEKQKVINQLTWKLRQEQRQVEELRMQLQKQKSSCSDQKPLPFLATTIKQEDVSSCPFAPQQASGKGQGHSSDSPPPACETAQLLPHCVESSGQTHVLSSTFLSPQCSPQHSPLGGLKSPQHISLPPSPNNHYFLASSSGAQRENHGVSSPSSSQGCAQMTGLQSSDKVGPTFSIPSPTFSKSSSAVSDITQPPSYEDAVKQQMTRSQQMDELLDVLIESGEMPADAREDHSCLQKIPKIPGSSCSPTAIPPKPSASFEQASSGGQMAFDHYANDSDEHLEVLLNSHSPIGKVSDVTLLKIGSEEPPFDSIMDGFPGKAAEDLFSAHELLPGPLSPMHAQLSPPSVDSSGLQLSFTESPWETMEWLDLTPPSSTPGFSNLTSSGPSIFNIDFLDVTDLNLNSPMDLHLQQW

For the next assay, the target named is T2, GST-C-TSHZ3 (UniProt Q8CGV9).
T2 sequence: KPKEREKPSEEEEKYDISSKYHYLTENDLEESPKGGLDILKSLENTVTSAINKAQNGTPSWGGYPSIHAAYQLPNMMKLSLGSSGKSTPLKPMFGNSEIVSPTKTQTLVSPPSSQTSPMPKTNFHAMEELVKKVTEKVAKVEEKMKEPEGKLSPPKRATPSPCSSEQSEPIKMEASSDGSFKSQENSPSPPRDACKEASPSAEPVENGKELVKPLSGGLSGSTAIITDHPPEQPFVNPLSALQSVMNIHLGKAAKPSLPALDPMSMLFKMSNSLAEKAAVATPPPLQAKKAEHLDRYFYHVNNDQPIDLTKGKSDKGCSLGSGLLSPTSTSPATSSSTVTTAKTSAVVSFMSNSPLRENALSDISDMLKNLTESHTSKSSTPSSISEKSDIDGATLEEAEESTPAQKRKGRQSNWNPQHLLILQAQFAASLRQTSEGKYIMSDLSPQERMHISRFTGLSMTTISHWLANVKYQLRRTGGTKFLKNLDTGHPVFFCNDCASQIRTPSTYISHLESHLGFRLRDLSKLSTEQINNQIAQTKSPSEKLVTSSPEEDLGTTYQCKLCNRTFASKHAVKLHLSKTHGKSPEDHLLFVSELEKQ
Nature of the assay: pull-down; GST fusion protein on glutathione beads (pre-incubated in 1% BSA) incubated overnight at 4°C with in vitro translated 35S-methionine labelled protein; SDS-PAGE and autoradiography; only the target purified.

In the next assay the target is T3, GST-N-TSHZ3 (UniProt Q8CGV9).
T3 sequence: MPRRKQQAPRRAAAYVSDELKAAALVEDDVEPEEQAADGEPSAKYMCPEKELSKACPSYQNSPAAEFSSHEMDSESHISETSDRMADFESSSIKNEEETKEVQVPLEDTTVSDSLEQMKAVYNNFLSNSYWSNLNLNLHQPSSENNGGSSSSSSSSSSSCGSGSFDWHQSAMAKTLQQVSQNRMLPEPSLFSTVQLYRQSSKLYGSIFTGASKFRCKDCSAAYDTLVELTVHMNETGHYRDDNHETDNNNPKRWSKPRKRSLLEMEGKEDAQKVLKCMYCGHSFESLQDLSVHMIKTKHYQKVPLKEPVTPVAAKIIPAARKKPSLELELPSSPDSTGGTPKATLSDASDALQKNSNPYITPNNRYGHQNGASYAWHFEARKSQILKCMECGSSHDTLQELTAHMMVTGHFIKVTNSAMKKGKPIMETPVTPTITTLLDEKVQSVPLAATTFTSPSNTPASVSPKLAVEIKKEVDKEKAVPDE
Described as above.

A further assay concerns the target T4, GST-TSHZ3fl (UniProt Q8CGV9).
T4 sequence: T1 sequence
The description is as above.

A further assay concerns the target GST-SOX9 (UniProt P48436). Described as above.
The next assay concerns the target GST-MYOCD (UniProt Q8VIM5). The assay is described as above.
The target of a further assay is Flag-tagged SOX9 (human) (UniProt P48436). As to the kind of experiment: co-IP; HEK293T cells transiently transfected; lysis buffer 50 mM Tris-HCl pH 7.6, 200 mM NaCl, 1 mM EDTA, 0.25% Na-deoxycholate; anti-Flag agarose M2 beads overnight at 4°C; immunoblot with anti-HA.

Results are given in words; binding and its absence hold for the method and conditions named. Binding seen in cells or lysates may run through a third protein. Some results given as binding are weak or reduced against the parent protein; the word gives no strength. For some assays here: Tags and fused reporters may be left off the sequences shown.

“Flag-tagged SOX9 (from UniProt P48436 1-509)”: in assay [1], the binding entry is given as “binds”.
With “in vitro translated SOX9 (from UniProt P48436 1-509)”, the binding result with GST-C-TSHZ3 is listed as “binds weakly”; with GST-N-TSHZ3, “binds”; in the assay with GST-TSHZ3fl, “binds”.

B1: in vitro translated TSHZ3fl (protein, UniProt Q8CGV9 1-1081)
chain: T1 sequence
modifications: 35S-methionine labelled
Consider B1, for which the binding entry with GST-SOX9 is listed as “binds”.

B2: in vitro translated N-TSHZ3 (domain or fragment, UniProt Q8CGV9 1-483)
chain: T3 sequence
modifications: 35S-methionine labelled
Take B2: the binding result in the assay with GST-SOX9 and in the assay with GST-MYOCD was “binds” each time.

B3: TSHZ3-trunc-HA (domain or fragment, UniProt Q63HK5 183-1081)
chain: RMLPEPSLFSTVQLYRQSSKLYGSIFTGASKFRCKDCSAAYDTLVELTVHMNETGHYRDDNHETDNNNPKRWSKPRKRSLLEMEGKEDAQKVLKCMYCGHSFESLQDLSVHMIKTKHYQKVPLKEPVTPVAAKIIPATRKKASLELELPSSPDSTGGTPKATISDTNDALQKNSNPYITPNNRYGHQNGASYAWHFEARKSQILKCMECGSSHDTLQELTAHMMVTGHFIKVTNSAMKKGKPIVETPVTPTITTLLDEKVQSVPLAATTFTSPSNTPASISPKLNVEVKKEVDKEKAVTDEKPKQKDKPGEEEEKCDISSKYHYLTENDLEESPKGGLDILKSLENTVTSAINKAQNGTPSWGGYPSIHAAYQLPNMMKLSLGSSGKSTPLKPMFGNSEIVSPTKNQTLVSPPSSQTSPMPKTNFHAMEELVKKVTEKVAKVEEKMKEPDGKLSPPKRATPSPCSSEVGEPIKMEASSDGGFRSQENSPSPPRDGCKDGSPLAEPVENGKELVKPLASSLSGSTAIITDHPPEQPFVNPLSALQSVMNIHLGKAAKPSLPALDPMSMLFKMSNSLAEKAAVATPPPLQSKKADHLDRYFYHVNNDQPIDLTKGKSDKGCSLGSVLLSPTSTAPATSSSTVTTAKTSAVVSFMSNSPLRENALSDISDMLKNLTESHTSKSSTPSSISEKSDIDGATLEEAEESTPAQKRKGRQSNWNPQHLLILQAQFAASLRQTSEGKYIMSDLSPQERMHISRFTGLSMTTISHWLANVKYQLRRTGGTKFLKNLDTGHPVFFCNDCASQIRTPSTYISHLESHLGFRLRDLSKLSTEQINSQIAQTKSPSEKMVTSSPEEDLGTSYQCKLCNRTFASKHAVKLHLSKTHGKSPEDHLLYVSELEKQ
For B3, the binding result in the assay with Flag-tagged SOX9 (human) is recorded as “no binding”.

The record behind these values is publication PMC3646048.
